The other results are listed elsewhere or left out.

This experiment deals with HepG2. Kind of experiment: cytotoxicity call (relative viability < 0.9). The following applies: 10 µM.
As for `C[C@@H]1CN([C@@H](C)CO)C(=O)Cc2cc(NC(=O)CCN3CCOCC3)ccc2O[C@@H]1CN(C)Cc1ccc(C(=O)Nc2ccccc2N)cc1`, the cytotoxicity call is “inactive”.
For `C[C@@H]1CN([C@H](C)CO)S(=O)(=O)c2ccc(C#Cc3ccccc3F)cc2O[C@H]1CN(C)C(=O)Cc1cccnc1`, the cytotoxicity call is “inactive”.
Take `COCC#Cc1cnc2c(c1)C(=O)N([C@@H](C)CO)C[C@H](C)[C@@H](CN(C)C(=O)Nc1ccccc1OC)O2`: the cytotoxicity call was “inactive”.
On to `C[C@@H]1CN([C@@H](C)CO)C(=O)c2cc(NC(=O)NC3CCCCC3)ccc2O[C@@H]1CN(C)Cc1ccc(C(=O)Nc2ccccc2N)cc1`, for which the cytotoxicity call was “inactive”.
For `COc1ccc(S(=O)(=O)Nc2cccc3c2O[C@H](CN(C)S(=O)(=O)c2cccs2)[C@H](C)CN([C@H](C)CO)C3=O)cc1` the value was “inactive”; for `Cc1noc(C)c1NC(=O)Nc1ccc2c(c1)C(=O)N([C@@H](C)CO)C[C@H](C)[C@@H](CN(C)C(=O)C1CCCCC1)OCCCC[C@H](C)O2`, “inactive”.
In the case of `Cc1ccc(S(=O)(=O)N(C)C[C@H]2OCCCC[C@@H](C)Oc3ccc(NC(=O)Nc4ccc5c(c4)OCO5)cc3C(=O)N([C@H](C)CO)C[C@@H]2C)cc1`, the cytotoxicity call is “inactive”.
For the molecule `Cc1ccc(S(=O)(=O)N[C@@H]2C=C[C@H](CC(=O)NCCN3CCCCC3)O[C@H]2CO)cc1`, the cytotoxicity call is “inactive”.
The value for `C[C@@H](O)Cn1cnc2c1c(=O)n(C)c(=O)n2C` was “inactive”; that for `Cc1nn(C)cc1NC(=O)C[C@@H]1CC[C@@H]2[C@@H](COc3ccc(NC(=O)C4CCOCC4)cc3C(=O)N2C)O1` was “inactive”.
For `C[C@H](CO)N1C[C@H](C)[C@H](CN(C)S(=O)(=O)c2cn(C)cn2)Oc2ccc(NC(=O)CCN3CCOCC3)cc2C1=O` the value was “inactive”; for `O=C1C[C@@H]2C(=O)NCCN2C(NC(=O)c2ccccc2)=N1`, “inactive”; for `C[C@H](CO)N1C[C@H](C)[C@H](CN(C)C(=O)Cc2ccncc2)Oc2ncc(C#Cc3ccccc3F)cc2C1=O`, “inactive”.
For `C[C@H](CO)N1C[C@H](C)[C@H](CN(C)C(=O)Cc2ccccn2)Oc2ncc(-c3cccc(C(=O)N(C)C)c3)cc2C1=O` the value was “inactive”; for `O=C(CCCCCCC(=O)N/N=C/c1cc(I)cc(I)c1O)NO`, “inactive”.
As for `COc1cc(/C=C/C(=O)O[C@H]2CC[C@]34C[C@]35CC[C@]3(C)[C@@H]([C@@H](C)CCC=C(C)C)CC[C@@]3(C)[C@@H]5CC[C@@H]4C2(C)C)ccc1O`, the cytotoxicity call was “inactive”.
The value for `C[C@@H]1CN([C@H](C)CO)C(=O)c2cc(NC(=O)C3CCCCC3)ccc2O[C@@H](C)CCCCO[C@@H]1CN(C)Cc1ccc(Cl)c(Cl)c1` was “inactive”; that for `CNC(=O)Cc1cnc(N)s1` was “inactive”; that for `C[C@@H]1CCCCO[C@H](CN(C)C(=O)Cc2ccccc2)[C@H](C)CN([C@H](C)CO)C(=O)c2cc(NC(=O)Nc3ccccc3)ccc2O1` was “inactive”.
The value for `C[C@@H]1CN([C@H](C)CO)C(=O)c2cc(NS(=O)(=O)c3ccc(Cl)cc3)ccc2O[C@@H](C)CCCCO[C@@H]1CN(C)S(=O)(=O)c1ccc(Cl)cc1` was “inactive”; that for `C[C@H](CO)N1C[C@H](C)[C@@H](CN(C)C(=O)c2cc(Cl)cc(Cl)c2)OCc2ccccc2-c2ccccc2C1=O` was “inactive”.
For `C[C@H]1CN([C@@H](C)CO)C(=O)c2cc(NC(=O)Nc3cccc4ccccc34)ccc2O[C@@H]1CN(C)Cc1ccccc1` the value was “inactive”; for `COc1ccc2c3c(n(c2c1)C)[C@H](CO)N(C[C@]13CCN(CC1)S(=O)(=O)C)C(=O)CN(C)C`, “inactive”; for `CO[C@H](CN(C)C(=O)C1CCOCC1)[C@@H](C)CN(C(=O)Nc1ccc(C(F)(F)F)cc1)[C@@H](C)CO`, “inactive”.
As for `CN1CCN(C(=O)[C@H]2[C@H](CO)[C@H]3Cn4c(ccc(C5=CCCC5)c4=O)[C@@H]2N3S(C)(=O)=O)CC1`, the cytotoxicity call is “inactive”.
In the case of `COc1ccc(NC(=O)Nc2ccc3c(c2)[C@@H]2C[C@H](CC(=O)N4CCN(C)CC4)O[C@H](CO)[C@@H]2O3)cc1`, the cytotoxicity call is “inactive”.
For `C[C@H]1CN([C@@H](C)CO)C(=O)CCCn2nncc2CO[C@@H]1CN(C)S(=O)(=O)c1ccc2ccccc2c1` the value was “inactive”.
In the case of `O=C(/C=C/c1ccc(O)cc1)[C@H]1C(=O)[C@H]([C@@H]2O[C@H](CO)[C@@H](O)[C@H](O)[C@H]2O)C(=O)[C@@](O)([C@@H]2O[C@H](CO)[C@@H](O)[C@H](O)[C@H]2O)C1=O`, the cytotoxicity call was “inactive”.
The value for `C[C@@H]1CN([C@H](C)CO)C(=O)c2cccc(NC(=O)Nc3ccc(F)cc3)c2O[C@H]1CN(C)Cc1ccc(Oc2ccccc2)cc1` was “inactive”; that for `C[C@@H]1CN([C@@H](C)CO)C(=O)c2cc(NC(=O)C3CC3)ccc2O[C@@H]1CN(C)S(=O)(=O)c1ccc(F)cc1` was “inactive”.
For `O=C(C[C@H]1C=C[C@@H](NS(=O)(=O)c2ccccc2)[C@@H](CO)O1)NCc1ccncn1` the value was “inactive”; for `Cc1noc(C)c1NC(=O)N(C)C[C@H]1OCCCC[C@@H](C)Oc2ccc(NC(=O)Nc3ccccc3)cc2C(=O)N([C@H](C)CO)C[C@@H]1C`, “inactive”; for `C[C@@H]1CN([C@H](C)CO)C(=O)Cc2cc(NC(=O)Cn3cnnn3)ccc2O[C@@H]1CN(C)Cc1ccc(C(F)(F)F)cc1`, “inactive”.
For `C[C@H](CO)N1C[C@H](C)[C@H](CN(C)S(C)(=O)=O)Oc2ccc(NC(=O)C3CCCCC3)cc2CC1=O` the value was “inactive”; for `COc1ccc(NC(=O)N(C)C[C@@H]2Oc3ccc(NS(C)(=O)=O)cc3C(=O)N([C@@H](C)CO)C[C@@H]2C)cc1`, “inactive”; for `CCCNC(=O)N(C)C[C@@H]1Oc2cc(C#Cc3ccccn3)ccc2S(=O)(=O)N([C@@H](C)CO)C[C@@H]1C`, “inactive”.
For the molecule `C[C@H]1CN([C@@H](C)CO)C(=O)c2cccc(NC(=O)NC3CCCCC3)c2O[C@H]1CN(C)Cc1ccc(Oc2ccccc2)cc1`, the cytotoxicity call was “inactive”.
For `Cc1ccc(S(=O)(=O)N(C)C[C@@H]2OCCCC[C@H](C)Oc3ccc(NC(=O)c4ccccc4)cc3C(=O)N([C@@H](C)CO)C[C@H]2C)cc1` the value was “inactive”.
In the case of `C[C@@H]1CN([C@H](C)CO)C(=O)c2cc(NS(=O)(=O)c3ccccc3)ccc2O[C@@H](C)CCCCO[C@H]1CN(C)C(=O)Nc1ccc(C(F)(F)F)cc1`, the cytotoxicity call was “inactive”.
For `CO[C@@H]1CN(C)C(=O)c2ccc(NC(=O)c3ccccc3)cc2OC[C@@H](C)N(C(=O)CN(C)C)C[C@@H]1C` the value was “inactive”.

(Values after the antibiotic and cytotoxicity screens of Wong et al. (2023).)
